This is one part of the list. The list includes weakly bound sequences.

The target in the experiment is MaxL homodimer (UniProt P61244). In words: universal protein-binding microarray (PBM). The settings on record: PBS-based mixture, 10 nM His-tagged protein dimer, 2% milk, 200 ng/uL BSA, 50 ng/uL salmon testes DNA, 0.02% TX-100; detection with Alexa 488 anti-His …; high values mean tight binding; most listed sequences are background and not binding sites; double strand, one strand shown.
UniProt P61244, sequence (P61244 whole entry): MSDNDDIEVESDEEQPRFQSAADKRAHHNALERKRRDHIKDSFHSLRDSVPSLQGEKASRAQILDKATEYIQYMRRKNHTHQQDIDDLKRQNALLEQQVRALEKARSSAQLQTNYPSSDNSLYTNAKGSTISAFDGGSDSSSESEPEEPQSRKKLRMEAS
Take ACTTTCTA: the binding signal (normalized occupancy) was 0.0745.

Take AGGGCTCC: the binding signal (normalized occupancy) turned out to be 0.0665.

Consider AAACCAAT, for which the binding signal (normalized occupancy) stood at 0.0735.

Turning to AACTCTCT, the binding signal (normalized occupancy) stood at 0.0731.

As to ATTTTTTA, the binding signal (normalized occupancy) came to 0.0778.

Regarding CGGAACTA, the binding signal (normalized occupancy) was 0.0675.

For the sequence AGTTTGGC, the binding signal (normalized occupancy) was 0.0716.

Consider TCCAGTAA, for which the binding signal (normalized occupancy) was 0.07.

For the sequence GCGTTCCA, the binding signal (normalized occupancy) worked out at 0.0746.

As for AGATCGAT, the binding signal (normalized occupancy) came out at 0.0761.

With CAAGTACG, the binding signal (normalized occupancy) worked out at 0.0752.

As to AATGGAGG, the binding signal (normalized occupancy) came to 0.0754.

CATAAATC: the binding signal (normalized occupancy) turned out to be 0.0857.

In the case of TGGTTAAA, the binding signal (normalized occupancy) was determined as 0.0737.

AATGCTCT: the binding signal (normalized occupancy) was found to be 0.0747.

In the case of ACCGCAGA, the binding signal (normalized occupancy) is 0.0692.

As to GGTACATA, the binding signal (normalized occupancy) was 0.0815.

For CATTGCAG, the binding signal (normalized occupancy) was found to be 0.0775.

AGAGCAAA: the binding signal (normalized occupancy) was 0.0684.

Take ACTGACCA: the binding signal (normalized occupancy) was 0.0743.

Consider ATATCGGG, for which the binding signal (normalized occupancy) was determined as 0.0805.

Regarding CGGGACAA, the binding signal (normalized occupancy) was 0.074.

For CTCGTGTC, the binding signal (normalized occupancy) came out at 0.0959.

As to CGAGAAAC, the binding signal (normalized occupancy) was 0.0718.

On to CGCTCCAG, for which the binding signal (normalized occupancy) worked out at 0.0653.

For TGCACGCA, the binding signal (normalized occupancy) is 0.0894.

As to ACATGTAA, the binding signal (normalized occupancy) was determined as 0.0953.

With GTTTTCTA, the binding signal (normalized occupancy) was 0.072.

For the sequence CCATATCG, the binding signal (normalized occupancy) is 0.083.

With GACATAAA, the binding signal (normalized occupancy) was 0.0815.

TTCGGAAA: the binding signal (normalized occupancy) worked out at 0.0698.

Turning to ATGTTACC, the binding signal (normalized occupancy) is 0.0845.

In the case of ACTTACGG, the binding signal (normalized occupancy) was 0.0731.

On to GACGGAGA, for which the binding signal (normalized occupancy) came out at 0.0651.

As for AAACAATT, the binding signal (normalized occupancy) was determined as 0.0739.

With CTGGATAC, the binding signal (normalized occupancy) worked out at 0.0737.

As for ACTGCGAA, the binding signal (normalized occupancy) came to 0.0662.

Turning to CGCGTTGA, the binding signal (normalized occupancy) came to 0.08.

As for CCCGTCCA, the binding signal (normalized occupancy) came out at 0.0734.

In the case of ATCCACTG, the binding signal (normalized occupancy) was 0.0816.

Turning to ACGGATAG, the binding signal (normalized occupancy) worked out at 0.0781.

As for AGGGGAAG, the binding signal (normalized occupancy) is 0.0795.

GGAAGCCA: the binding signal (normalized occupancy) worked out at 0.069.

Regarding CTATCGGA, the binding signal (normalized occupancy) worked out at 0.0709.

Consider AACGTGGT, for which the binding signal (normalized occupancy) came out at 0.125.

On to CGTCACTA, for which the binding signal (normalized occupancy) was found to be 0.076.

With AGGTCCTA, the binding signal (normalized occupancy) was 0.0693.

On to ACAGGCCG, for which the binding signal (normalized occupancy) was 0.0686.

Consider CAATTATA, for which the binding signal (normalized occupancy) worked out at 0.0772.

On to CCCTTGTA, for which the binding signal (normalized occupancy) worked out at 0.0775.

Consider TGCAACAA, for which the binding signal (normalized occupancy) was 0.0748.

Consider CAGCTAAG, for which the binding signal (normalized occupancy) is 0.0679.

Consider AAAGTATA, for which the binding signal (normalized occupancy) was found to be 0.0844.

As for ACTGTACG, the binding signal (normalized occupancy) was found to be 0.0741.

As to GGAGCAAA, the binding signal (normalized occupancy) is 0.0728.

For ATACGATA, the binding signal (normalized occupancy) worked out at 0.0815.

CCTTAGAA: the binding signal (normalized occupancy) came out at 0.072.

Turning to ACTAGAAG, the binding signal (normalized occupancy) is 0.0716.

Consider CACGTCGA, for which the binding signal (normalized occupancy) was found to be 0.0845.

As to CATTGGAC, the binding signal (normalized occupancy) is 0.0728.

As for ACCCCCGG, the binding signal (normalized occupancy) was 0.0755.

As for ATAGACGA, the binding signal (normalized occupancy) worked out at 0.0769.

For the sequence CGTAACTA, the binding signal (normalized occupancy) was determined as 0.0731.

As to ATCGTTGA, the binding signal (normalized occupancy) is 0.0726.

With ATTACTTA, the binding signal (normalized occupancy) was determined as 0.0809.

Take CCTTAGCC: the binding signal (normalized occupancy) is 0.0725.

For AATAAGTC, the binding signal (normalized occupancy) was 0.0763.

Take CTGCTTCC: the binding signal (normalized occupancy) turned out to be 0.0756.

Take GAACATAA: the binding signal (normalized occupancy) came out at 0.0784.

AGATGCAG: the binding signal (normalized occupancy) is 0.0757.

ACCTGGCC: the binding signal (normalized occupancy) is 0.0741.

Regarding GCTTAAAA, the binding signal (normalized occupancy) was 0.0678.

With AAAAAGCC, the binding signal (normalized occupancy) stood at 0.0676.

Take AATGCCAG: the binding signal (normalized occupancy) was determined as 0.0707.

For the sequence CGACGTAC, the binding signal (normalized occupancy) worked out at 0.0724.

Take CCATCGAG: the binding signal (normalized occupancy) is 0.0792.

As for AGGCGTCA, the binding signal (normalized occupancy) is 0.0742.

Regarding CCGGACAG, the binding signal (normalized occupancy) is 0.0651.

As for ACTGCGCC, the binding signal (normalized occupancy) was 0.068.

As for CAAGGGTG, the binding signal (normalized occupancy) came to 0.0782.

For CCCAGCCA, the binding signal (normalized occupancy) was 0.0739.

As to AGGGTCCG, the binding signal (normalized occupancy) is 0.0755.

In the case of CCTAGCGC, the binding signal (normalized occupancy) turned out to be 0.0666.

For the sequence ACGTCTCG, the binding signal (normalized occupancy) amounted to 0.0779.

On to CTCACCAG, for which the binding signal (normalized occupancy) is 0.0787.

As for CCAACAGG, the binding signal (normalized occupancy) amounted to 0.0721.

With CTATTATC, the binding signal (normalized occupancy) was found to be 0.0781.

In the case of CAAAACTG, the binding signal (normalized occupancy) was 0.0725.

With ACTGCATG, the binding signal (normalized occupancy) came to 0.0859.

Consider AGCGGCCC, for which the binding signal (normalized occupancy) is 0.0653.

Take CCCGAAGA: the binding signal (normalized occupancy) stood at 0.0718.

Regarding CTGTCCGC, the binding signal (normalized occupancy) was 0.0678.

Take AGCCAAAG: the binding signal (normalized occupancy) came to 0.0651.

With GTTAACAA, the binding signal (normalized occupancy) is 0.0757.

For CTCTGCAC, the binding signal (normalized occupancy) came to 0.0765.

ATCGTTTC: the binding signal (normalized occupancy) was 0.0713.

Regarding CCAAGCAG, the binding signal (normalized occupancy) came out at 0.0713.

For the sequence AAATAGAA, the binding signal (normalized occupancy) was found to be 0.0773.

Regarding TGCCACAA, the binding signal (normalized occupancy) turned out to be 0.0763.

CCGGTCGC: the binding signal (normalized occupancy) is 0.0674.

In the case of TAAGGTAA, the binding signal (normalized occupancy) was 0.0774.

For CCGTCGCG, the binding signal (normalized occupancy) amounted to 0.0659.

With CAAGGGCA, the binding signal (normalized occupancy) amounted to 0.0702.

Take ATAGAGAA: the binding signal (normalized occupancy) is 0.0756.

On to AATTATCT, for which the binding signal (normalized occupancy) was 0.0784.

Regarding TATAAGCA, the binding signal (normalized occupancy) is 0.082.

For the sequence GTGAGTTA, the binding signal (normalized occupancy) was 0.0792.

As for CGGGGCTC, the binding signal (normalized occupancy) worked out at 0.0728.

ATAGAGTA: the binding signal (normalized occupancy) stood at 0.0751.

For AGTGAAAT, the binding signal (normalized occupancy) worked out at 0.0717.

As to TGACTCAA, the binding signal (normalized occupancy) is 0.0763.

As to CTTAAAAG, the binding signal (normalized occupancy) is 0.0711.

Consider AAAATGGG, for which the binding signal (normalized occupancy) came out at 0.0708.

Consider ATGCAACG, for which the binding signal (normalized occupancy) came to 0.0795.

Take GCCCTTAA: the binding signal (normalized occupancy) came out at 0.0705.

Consider ATGACTGG, for which the binding signal (normalized occupancy) was found to be 0.0768.

On to GTGTGAAC, for which the binding signal (normalized occupancy) stood at 0.0828.

For GGCAGTTA, the binding signal (normalized occupancy) was 0.0763.

As for ACGGAGTG, the binding signal (normalized occupancy) turned out to be 0.0717.

For CATGTAGA, the binding signal (normalized occupancy) was 0.0902.

ACAGACGC: the binding signal (normalized occupancy) was 0.0718.

Regarding CCCTACGC, the binding signal (normalized occupancy) worked out at 0.0715.

For the sequence AATAATAT, the binding signal (normalized occupancy) was determined as 0.0855.

GGTCAGGA: the binding signal (normalized occupancy) is 0.0732.

In the case of ACGTCGCC, the binding signal (normalized occupancy) was 0.0811.

Turning to CATGGCGC, the binding signal (normalized occupancy) was found to be 0.0766.

As to GAGGAGAA, the binding signal (normalized occupancy) worked out at 0.0783.

In the case of GGCTCCCC, the binding signal (normalized occupancy) turned out to be 0.0676.

As for GCATCTTA, the binding signal (normalized occupancy) stood at 0.0771.

In the case of AACGCTAG, the binding signal (normalized occupancy) came to 0.0726.

ATCGGCAG: the binding signal (normalized occupancy) came to 0.0718.

As for CATACGCC, the binding signal (normalized occupancy) was 0.081.

As to TCCCGCGA, the binding signal (normalized occupancy) was 0.0717.

Take CATGAATA: the binding signal (normalized occupancy) amounted to 0.0928.

GGATCTAA: the binding signal (normalized occupancy) came to 0.0779.

Consider GAAAGCTA, for which the binding signal (normalized occupancy) is 0.0705.

Consider GAAAGAGC, for which the binding signal (normalized occupancy) amounted to 0.0721.

For the sequence CCATAAAA, the binding signal (normalized occupancy) turned out to be 0.0859.

Take GCGAGAAA: the binding signal (normalized occupancy) stood at 0.0748.

For CTTCAGCC, the binding signal (normalized occupancy) came out at 0.0718.

For ACAGGGGC, the binding signal (normalized occupancy) was 0.0765.

On to AGTGCCGG, for which the binding signal (normalized occupancy) worked out at 0.0762.

Take ATTTATGC: the binding signal (normalized occupancy) was 0.0838.

Turning to CTAGCCTA, the binding signal (normalized occupancy) was found to be 0.0691.

With CTGCCGCA, the binding signal (normalized occupancy) was determined as 0.0734.

In the case of GAGTCGGC, the binding signal (normalized occupancy) came to 0.0659.

With AGCGGACT, the binding signal (normalized occupancy) was 0.0703.

GTCTGGGA: the binding signal (normalized occupancy) stood at 0.0714.

Consider CCTGCGTC, for which the binding signal (normalized occupancy) came out at 0.0706.

As for CTAGTGGA, the binding signal (normalized occupancy) was 0.0754.

Take CCAGAAAA: the binding signal (normalized occupancy) came to 0.0716.

Take CGGGTCTA: the binding signal (normalized occupancy) was 0.076.

In the case of GCCGACGC, the binding signal (normalized occupancy) was 0.0701.

In the case of ACAGGTTA, the binding signal (normalized occupancy) came to 0.0784.

Regarding ATCTTGCG, the binding signal (normalized occupancy) was 0.0776.

Turning to TGCCACCA, the binding signal (normalized occupancy) amounted to 0.0815.

For ATCGCCGC, the binding signal (normalized occupancy) was determined as 0.0728.

For the sequence TCAAGACA, the binding signal (normalized occupancy) worked out at 0.0708.

Consider CACGGGGG, for which the binding signal (normalized occupancy) amounted to 0.101.

Consider ACAAGTAA, for which the binding signal (normalized occupancy) worked out at 0.0794.

Consider GCGAACAC, for which the binding signal (normalized occupancy) amounted to 0.0778.

In the case of ATATCAAG, the binding signal (normalized occupancy) was determined as 0.0794.

Take AACATGTC: the binding signal (normalized occupancy) amounted to 0.087.

For ATTTTAAG, the binding signal (normalized occupancy) was 0.0735.

With CTCCTAGC, the binding signal (normalized occupancy) worked out at 0.0746.

With CGATACAC, the binding signal (normalized occupancy) came to 0.0865.

Consider ACATAGTC, for which the binding signal (normalized occupancy) came to 0.0786.

Consider TCATAGAA, for which the binding signal (normalized occupancy) amounted to 0.0768.

Take TAGATGAA: the binding signal (normalized occupancy) was 0.0818.

Consider CAGGCGAC, for which the binding signal (normalized occupancy) turned out to be 0.0738.

Consider CACATGCG, for which the binding signal (normalized occupancy) was 0.159.

Turning to AATGCATA, the binding signal (normalized occupancy) amounted to 0.0839.

The values are drawn from paper PMC4242493.
